Numbering of substitutions follows the chain as printed; changes in the protein carry UniProt numbers. This is one part of the list.
T1: RBFOX1 RRM RbFoxmut (Fox-RRM*) (Homo sapiens, UniProt Q9NWB1 109-208, R118D;E147R;N151S;E152T)
T1 sequence: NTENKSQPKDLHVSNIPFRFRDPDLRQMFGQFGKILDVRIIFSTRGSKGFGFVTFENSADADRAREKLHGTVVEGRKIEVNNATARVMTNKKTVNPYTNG

B1: AAAGGUU (DNA:RNA)
RNA: GGGAGACCGGAAUUCAGAUUGUCCAAAGGUUUUAAAUCCCGUCGUAGCCACCA
DNA 1: CAATCTGAATTCCGGTCTCCC
DNA 2: TGGTGGCTACGACGGGATT
B2: GUGCCUA (DNA:RNA)
RNA: B1 RNA with A25G, A26U, A27G, G28C, G29C, U31A
DNA 1: CAATCTGAATTCCGGTCTCCC
DNA 2: TGGTGGCTACGACGGGATT
B3: CACCCAC (DNA:RNA)
RNA: B1 RNA with A25C, A27C, G28C, G29C, U30A, U31C
DNA 1: CAATCTGAATTCCGGTCTCCC
DNA 2: TGGTGGCTACGACGGGATT
B4: GUUGCUU (DNA:RNA)
RNA: B1 RNA with A25G, A26U, A27U, G29C
DNA 1: CAATCTGAATTCCGGTCTCCC
DNA 2: TGGTGGCTACGACGGGATT
B5: CAAUAAA (DNA:RNA)
RNA: B1 RNA with A25C, G28U, G29A, U30A, U31A
DNA 1: CAATCTGAATTCCGGTCTCCC
DNA 2: TGGTGGCTACGACGGGATT
B6: CAAUGCC (DNA:RNA)
RNA: B1 RNA with A25C, G28U, U30C, U31C
DNA 1: CAATCTGAATTCCGGTCTCCC
DNA 2: TGGTGGCTACGACGGGATT
B7: AAAAGGU (DNA:RNA)
RNA: B1 RNA with G28A, U30G
DNA 1: CAATCTGAATTCCGGTCTCCC
DNA 2: TGGTGGCTACGACGGGATT
B8: AUCUUUA (DNA:RNA)
RNA: B1 RNA with A26U, A27C, G28U, G29U, U31A
DNA 1: CAATCTGAATTCCGGTCTCCC
DNA 2: TGGTGGCTACGACGGGATT
B9: CCAGCUC (DNA:RNA)
RNA: B1 RNA with A25C, A26C, G29C, U31C
DNA 1: CAATCTGAATTCCGGTCTCCC
DNA 2: TGGTGGCTACGACGGGATT
B10: AGACUAA (DNA:RNA)
RNA: B1 RNA with A26G, G28C, G29U, U30A, U31A
DNA 1: CAATCTGAATTCCGGTCTCCC
DNA 2: TGGTGGCTACGACGGGATT
B11: UCUACAC (DNA:RNA)
RNA: GGGAGACCGGAAUUCAGAUUGUCCUCUACACUUAAAUCCCGUCGUAGCCACCA
DNA 1: CAATCTGAATTCCGGTCTCCC
DNA 2: TGGTGGCTACGACGGGATT
B12: UGGACUC (DNA:RNA)
RNA: B11 RNA with C26G, U27G, A30U
DNA 1: CAATCTGAATTCCGGTCTCCC
DNA 2: TGGTGGCTACGACGGGATT
B13: CUGAUUA (DNA:RNA)
RNA: B1 RNA with A25C, A26U, A27G, G28A, G29U, U31A
DNA 1: CAATCTGAATTCCGGTCTCCC
DNA 2: TGGTGGCTACGACGGGATT
B14: GGUGGAA (DNA:RNA)
RNA: B1 RNA with A25G, A26G, A27U, U30A, U31A
DNA 1: CAATCTGAATTCCGGTCTCCC
DNA 2: TGGTGGCTACGACGGGATT
B15: CAAGGCC (DNA:RNA)
RNA: B1 RNA with A25C, U30C, U31C
DNA 1: CAATCTGAATTCCGGTCTCCC
DNA 2: TGGTGGCTACGACGGGATT
B16: AUCGUGA (DNA:RNA)
RNA: B1 RNA with A26U, A27C, G29U, U30G, U31A
DNA 1: CAATCTGAATTCCGGTCTCCC
DNA 2: TGGTGGCTACGACGGGATT
B17: GAUUAUU (DNA:RNA)
RNA: B1 RNA with A25G, A27U, G28U, G29A
DNA 1: CAATCTGAATTCCGGTCTCCC
DNA 2: TGGTGGCTACGACGGGATT
B18: GAAAAUC (DNA:RNA)
RNA: B1 RNA with A25G, G28A, G29A, U31C
DNA 1: CAATCTGAATTCCGGTCTCCC
DNA 2: TGGTGGCTACGACGGGATT
B19: GACAUUC (DNA:RNA)
RNA: B1 RNA with A25G, A27C, G28A, G29U, U31C
DNA 1: CAATCTGAATTCCGGTCTCCC
DNA 2: TGGTGGCTACGACGGGATT
B20: CUAUGUU (DNA:RNA)
RNA: B1 RNA with A25C, A26U, G28U
DNA 1: CAATCTGAATTCCGGTCTCCC
DNA 2: TGGTGGCTACGACGGGATT
B21: GGCCAAG (DNA:RNA)
RNA: B11 RNA with U25G, C26G, U27C, A28C, C29A, C31G
DNA 1: CAATCTGAATTCCGGTCTCCC
DNA 2: TGGTGGCTACGACGGGATT
B22: CGACUGU (DNA:RNA)
RNA: B1 RNA with A25C, A26G, G28C, G29U, U30G
DNA 1: CAATCTGAATTCCGGTCTCCC
DNA 2: TGGTGGCTACGACGGGATT
B23: GGGAUUG (DNA:RNA)
RNA: B1 RNA with A25G, A26G, A27G, G28A, G29U, U31G
DNA 1: CAATCTGAATTCCGGTCTCCC
DNA 2: TGGTGGCTACGACGGGATT
B24: GAGAGAU (DNA:RNA)
RNA: B1 RNA with A25G, A27G, G28A, U30A
DNA 1: CAATCTGAATTCCGGTCTCCC
DNA 2: TGGTGGCTACGACGGGATT
B25: ACGCUCC (DNA:RNA)
RNA: B11 RNA with U25A, U27G, A28C, C29U, A30C
DNA 1: CAATCTGAATTCCGGTCTCCC
DNA 2: TGGTGGCTACGACGGGATT
B26: CUUGAGA (DNA:RNA)
RNA: B1 RNA with A25C, A26U, A27U, G29A, U30G, U31A
DNA 1: CAATCTGAATTCCGGTCTCCC
DNA 2: TGGTGGCTACGACGGGATT
B27: ACCUUGC (DNA:RNA)
RNA: B11 RNA with U25A, U27C, A28U, C29U, A30G
DNA 1: CAATCTGAATTCCGGTCTCCC
DNA 2: TGGTGGCTACGACGGGATT
B28: CUUUCUA (DNA:RNA)
RNA: B11 RNA with U25C, C26U, A28U, A30U, C31A
DNA 1: CAATCTGAATTCCGGTCTCCC
DNA 2: TGGTGGCTACGACGGGATT
B29: GAAUGCC (DNA:RNA)
RNA: B1 RNA with A25G, G28U, U30C, U31C
DNA 1: CAATCTGAATTCCGGTCTCCC
DNA 2: TGGTGGCTACGACGGGATT
B30: AAAUUCA (DNA:RNA)
RNA: B1 RNA with G28U, G29U, U30C, U31A
DNA 1: CAATCTGAATTCCGGTCTCCC
DNA 2: TGGTGGCTACGACGGGATT
B31: AUUACCA (DNA:RNA)
RNA: B11 RNA with U25A, C26U, A30C, C31A
DNA 1: CAATCTGAATTCCGGTCTCCC
DNA 2: TGGTGGCTACGACGGGATT

target: T1, RBFOX1 RRM RbFoxmut (Fox-RRM*); assay: EMSA; HiTS-Eq, 1 nM pool, 10 min; buffer printed only for the single-RNA assays: 10 mM Tris pH 7.5, 150 mM NaCl, 3.4 mM EDTA, 0.001% NP-40, 30 C; settings: tags: His6 N-terminal (pET28a); label: 5' 32P
Method in brief: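 Purified RbFox RRM (wild type or mutant) was equilibrated for 10 min in 50 µL with 1 nM of a 5′-radiolabelled pool of RNA with 7 randomized nucleotides, its flanks annealed to DNA oligonucleotides, across increasing protein concentrations. Free RNA was separated by 8% native PAGE, excised, reverse-transcribed, PCR-barcoded and sequenced on an Illumina HiSeq 2500. Relative association constants came from read-count changes of each variant against the control reaction, normalised to the cognate motif.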

Row | Binder | binding signal
1 | B1 | 0.0771 KA relative to UGCAUGU
2 | B2 | 0.108 KA relative to UGCAUGU
3 | B3 | 0.0866 KA relative to UGCAUGU
4 | B4 | 0.0974 KA relative to UGCAUGU
5 | B5 | 0.119 KA relative to UGCAUGU
6 | B6 | 0.156 KA relative to UGCAUGU
7 | B7 | 0.0808 KA relative to UGCAUGU
8 | B8 | 0.131 KA relative to UGCAUGU
9 | B9 | 0.0912 KA relative to UGCAUGU
10 | B10 | 0.111 KA relative to UGCAUGU
11 | B11 | 0.0553 KA relative to UGCAUGU
12 | B12 | 0.0856 KA relative to UGCAUGU
13 | B13 | 0.0998 KA relative to UGCAUGU
14 | B14 | 0.0957 KA relative to UGCAUGU
15 | B15 | 0.146 KA relative to UGCAUGU
16 | B16 | 0.0998 KA relative to UGCAUGU

Row | Binder | binding signal
17 | B17 | 0.0889 KA relative to UGCAUGU
18 | B18 | 0.0595 KA relative to UGCAUGU
19 | B19 | 0.0498 KA relative to UGCAUGU
20 | B20 | 0.132 KA relative to UGCAUGU
21 | B21 | 0.0807 KA relative to UGCAUGU
22 | B22 | 0.204 KA relative to UGCAUGU
23 | B23 | 0.282 KA relative to UGCAUGU
24 | B24 | 0.0959 KA relative to UGCAUGU
25 | B25 | 0.0675 KA relative to UGCAUGU
26 | B26 | 0.109 KA relative to UGCAUGU
27 | B27 | 0.0942 KA relative to UGCAUGU
28 | B28 | 0.0908 KA relative to UGCAUGU
29 | B29 | 0.356 KA relative to UGCAUGU
30 | B30 | 0.102 KA relative to UGCAUGU
31 | B31 | 0.115 KA relative to UGCAUGU

Source: paper PMC9911399, “Two distinct binding modes provide the RNA-binding protein RbFox with extraordinary sequence specificity”
